{"source": "the supplement of paper PMC10126150", "note": "Sequences with one replicate were seen in a single cluster, so their values are uncertain.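 Note: ATP exposure 15 min at 22 °C before imaging.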"}
{"tested_on": "ATP", "test": "switch fluorescence ratio, 500 uM ATP over buffer (Cy3 cluster intensity, sum of 5 cycles each) (fold (ratio)); higher = stronger signal-on switching upon ATP binding; sequences stand for … in TCGTCGGCAGCGTCAGATGTGTATAAGAGACAGTTTTTTTTTTTTTTTTTTTTTTTTT…TC", "conditions": "aptamer strand: ATP DNA aptamer (quencher-CACCTGGGGGAGTATTGCGGAGGAAGG + anchor), 100 nM annealed; ATP concentration: 500 uM; one replicate", "outline": "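Values give the fluorescence ratio for each switch-domain sequence, averaged from per-cluster ratios of summed target-cycle to summed buffer-cycle Cy3 intensity. The Cy3-labelled switching-strand clusters sat on a modified Illumina MiSeq flow-cell, were annealed to 100 nM quencher-labelled ATP aptamer, and were imaged in selection buffer, then after 15 min with 500 uM ATP at 22 °C. Five cycles ran with NaOH stripping and re-annealing between them, and clusters outside 100-1000 RFU were excluded.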"}
{"sequence": "CGTACCTTGC", "switch fluorescence ratio": 2.49}
{"sequence": "CGTACCTTGG", "switch fluorescence ratio": 1.02}
{"sequence": "CGTACTCAGG", "switch fluorescence ratio": 1.34}
{"sequence": "CGTACTGAG", "switch fluorescence ratio": 1.06}
{"sequence": "CGTACTGTGC", "switch fluorescence ratio": 1.07}
{"sequence": "CGTAGAACGA", "switch fluorescence ratio": 1.02}
{"sequence": "CGTAGACATT", "switch fluorescence ratio": 1.05}
{"sequence": "CGTAGGGATT", "switch fluorescence ratio": 1.02}
{"sequence": "CGTAGGGCGG", "switch fluorescence ratio": 1.03}
{"sequence": "CGTAGGGGAG", "switch fluorescence ratio": 0.955}
{"sequence": "CGTAGTCTTG", "switch fluorescence ratio": 0.957}
{"sequence": "CGTAGTTGCA", "switch fluorescence ratio": 0.946}
{"sequence": "CGTAGTTGCG", "switch fluorescence ratio": 0.99}
{"sequence": "CGTATAACAG", "switch fluorescence ratio": 0.994}
{"sequence": "CGTATACAGG", "switch fluorescence ratio": 1}
{"sequence": "CGTATCCTGG", "switch fluorescence ratio": 0.961}
{"sequence": "CGTATGTATG", "switch fluorescence ratio": 0.988}
{"sequence": "CGTATTAAG", "switch fluorescence ratio": 0.962}
{"sequence": "CGTATTCTAT", "switch fluorescence ratio": 1.02}
{"sequence": "CGTATTGCTT", "switch fluorescence ratio": 0.97}
{"sequence": "CGTATTGGAT", "switch fluorescence ratio": 0.993}
{"sequence": "CGTATTTCGA", "switch fluorescence ratio": 1.01}
{"sequence": "CGTCAGCCGT", "switch fluorescence ratio": 0.995}
{"sequence": "CGTCAGGAGG", "switch fluorescence ratio": 1.02}
{"sequence": "CGTCAGGCGT", "switch fluorescence ratio": 1.04}
{"sequence": "CGTCAGTATC", "switch fluorescence ratio": 1.16}
{"sequence": "CGTCCACATT", "switch fluorescence ratio": 1.8}
{"sequence": "CGTCCCGTTA", "switch fluorescence ratio": 1.03}
{"sequence": "CGTCCCTTGG", "switch fluorescence ratio": 1.11}
{"sequence": "CGTCCGAGGA", "switch fluorescence ratio": 1.07}
{"sequence": "CGTCCTATGT", "switch fluorescence ratio": 1}
{"sequence": "CGTCCTGCTG", "switch fluorescence ratio": 0.906}
{"sequence": "CGTCCTGTT", "switch fluorescence ratio": 0.987}
{"sequence": "CGTCGCATAG", "switch fluorescence ratio": 2.66}
{"sequence": "CGTCGCTTCC", "switch fluorescence ratio": 1.74}
{"sequence": "CGTCGGCGTT", "switch fluorescence ratio": 1.01}
{"sequence": "CGTCTCATTC", "switch fluorescence ratio": 1.08}
{"sequence": "CGTCTGACGG", "switch fluorescence ratio": 1.02}
{"sequence": "CGTCTGCCA", "switch fluorescence ratio": 1.07}
{"sequence": "CGTCTGTCGA", "switch fluorescence ratio": 1.06}
{"sequence": "CGTCTTGCGA", "switch fluorescence ratio": 0.97}
{"sequence": "CGTCTTTATA", "switch fluorescence ratio": 1}
{"sequence": "CGTCTTTCCT", "switch fluorescence ratio": 1.04}
{"sequence": "CGTGACCATG", "switch fluorescence ratio": 0.939}
{"sequence": "CGTGACGTCG", "switch fluorescence ratio": 1.1}
{"sequence": "CGTGACTCCA", "switch fluorescence ratio": 1.23}
{"sequence": "CGTGAGAGAC", "switch fluorescence ratio": 1.03}
{"sequence": "CGTGATTAGG", "switch fluorescence ratio": 1.03}
{"sequence": "CGTGATTCTC", "switch fluorescence ratio": 1.22}
{"sequence": "CGTGATTTAA", "switch fluorescence ratio": 1.05}
{"sequence": "CGTGCAAGTC", "switch fluorescence ratio": 1.15}
{"sequence": "CGTGCCACTA", "switch fluorescence ratio": 1}
{"sequence": "CGTGCCAGGA", "switch fluorescence ratio": 1.02}
{"sequence": "CGTGCCTACA", "switch fluorescence ratio": 1.02}
{"sequence": "CGTGCGCGGG", "switch fluorescence ratio": 1.06}
{"sequence": "CGTGCGGACT", "switch fluorescence ratio": 0.993}
{"sequence": "CGTGCGGTTT", "switch fluorescence ratio": 1.02}
{"sequence": "CGTGCGTTGC", "switch fluorescence ratio": 1.02}
{"sequence": "CGTGCTTAGG", "switch fluorescence ratio": 1}
{"sequence": "CGTGCTTATG", "switch fluorescence ratio": 1.03}
{"sequence": "CGTGGAATAG", "switch fluorescence ratio": 1.21}
{"sequence": "CGTGGAGAG", "switch fluorescence ratio": 1.04}
{"sequence": "CGTGGGAGA", "switch fluorescence ratio": 1.13}
{"sequence": "CGTGGGGACG", "switch fluorescence ratio": 1.02}
{"sequence": "CGTGGGGAGA", "switch fluorescence ratio": 1.08}
{"sequence": "CGTGGGGTGA", "switch fluorescence ratio": 1.04}
{"sequence": "CGTGGGTGCT", "switch fluorescence ratio": 1.03}
{"sequence": "CGTGGGTTAT", "switch fluorescence ratio": 1.04}
{"sequence": "CGTGGTCCTA", "switch fluorescence ratio": 0.899}
{"sequence": "CGTGGTCTAG", "switch fluorescence ratio": 0.997}
{"sequence": "CGTGGTCTGT", "switch fluorescence ratio": 0.959}
{"sequence": "CGTGTAAGTC", "switch fluorescence ratio": 0.998}
{"sequence": "CGTGTAGCTA", "switch fluorescence ratio": 1.05}
{"sequence": "CGTGTATCAT", "switch fluorescence ratio": 1.04}
{"sequence": "CGTGTATTGT", "switch fluorescence ratio": 1}
{"sequence": "CGTGTATTT", "switch fluorescence ratio": 1.07}
{"sequence": "CGTGTGAGAT", "switch fluorescence ratio": 1.01}
{"sequence": "CGTGTGTCCT", "switch fluorescence ratio": 0.955}
{"sequence": "CGTGTTCGAC", "switch fluorescence ratio": 0.946}
{"sequence": "CGTGTTGACT", "switch fluorescence ratio": 1.01}
{"sequence": "CGTGTTTCAC", "switch fluorescence ratio": 1.04}
{"sequence": "CGTTAAGGGC", "switch fluorescence ratio": 1.07}
{"sequence": "CGTTACGGA", "switch fluorescence ratio": 1.04}
{"sequence": "CGTTATGATC", "switch fluorescence ratio": 1.05}
{"sequence": "CGTTCACCCA", "switch fluorescence ratio": 1.03}
{"sequence": "CGTTCAGACT", "switch fluorescence ratio": 0.983}
{"sequence": "CGTTCAGCTG", "switch fluorescence ratio": 0.959}
{"sequence": "CGTTCCATT", "switch fluorescence ratio": 1.08}
{"sequence": "CGTTCCTTTC", "switch fluorescence ratio": 1.6}
{"sequence": "CGTTCGAATG", "switch fluorescence ratio": 1.03}
{"sequence": "CGTTCGCATG", "switch fluorescence ratio": 2.3}
{"sequence": "CGTTCTATGA", "switch fluorescence ratio": 0.981}
{"sequence": "CGTTCTTGG", "switch fluorescence ratio": 0.989}
{"sequence": "CGTTGAAGTA", "switch fluorescence ratio": 1}
{"sequence": "CGTTGACCAA", "switch fluorescence ratio": 1.03}
{"sequence": "CGTTGAGTGG", "switch fluorescence ratio": 1.06}
{"sequence": "CGTTGCATGG", "switch fluorescence ratio": 1.06}
{"sequence": "CGTTGCCCGT", "switch fluorescence ratio": 1.02}
{"sequence": "CGTTGCGAA", "switch fluorescence ratio": 0.973}
{"sequence": "CGTTGCGGC", "switch fluorescence ratio": 1.1}
{"sequence": "CGTTGGCGCC", "switch fluorescence ratio": 0.996}
